Calls of active or inactive are those of the source. No cut-off for these calls is given here.

For this test, the system named is Pyricularia grisea. The test is described as follows: Fungicidal activity against Magnaporthe grisea grown on PDA medium assessed as inhibition of mycelial growth incubated for 4 to 7 days at 25 degC in presence of 10 mg/L mitochondrial alternative oxidase inhibitor, SHAM.

As to `C=CCc1ccccc1O` [2-ALLYLPHENOL], the “growth inhibition (GI)” value was “Active”.

For the origin of these results see ChEMBL document CHEMBL3045109, “Inhibitory effect of bionic fungicide 2-allylphenol on Botrytis cinerea (Pers. ex Fr.) in vitro” (Pest Manag Sci, 2009).
